From the supplement of paper PMC12217912
The list shows a part of the results. The full chains were built here from the parent and the listed change. Inactive controls read about 0.05.

B1: TEV protease; numbered along this chain (parent)
chain: MGESLFKGPRDYNPISSSICHLTNESDGHTTSLYGIGFGPFIITNKHLFRRNNGTLVVQSLHGVFKVKDTTTLQQHLVDGRDMIIIRMPKDFPPFPQKLKFREPQREERICLVTTNFQTKSMSSMVSDTSCTFPSGDGIFWKHWIQTKDGQCGSPLVSTRDGFIVGIHSASNFTNTNNYFTSVPKNFMELLTNQEAQQWVSGWRLNADSVLWGGHKVFMVKPEEPFQPVKEATQL

Variants of: B1
Test: raw area under fraction-flipped curve 0-4 h after induction (AUC4h, not background-subtracted), DNA-recorder readout of cleavage of the substrate (dimensionless); higher = more cleavage of the substrate by the protease variant
Conditions: temperature: 34 °C; time window: 0-4 h after rhamnose induction
Procedure: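 In vivo DNA recorder in E. coli TOP10(DE3) ΔrhaA at 34 °C. Each TEVp single-site mutant (parent TEVp 0) is paired with a single-site variant of the 7-mer TEVs (canonical ENLYFQ|S). The substrate sits between flexible linkers in a Bxb1-sfGFP-TEVs-SsrA fusion, so cleavage stabilises Bxb1 and speeds flipping of a recombination array, read by NGS. The value is the raw area under the fraction-flipped curve over 0-4 h after rhamnose induction (AUC4h), with ≥20 reads per time point. It is not background-subtracted; inactive controls average about 0.047.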
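Also: Bxb1 expression induced with 0.2% (w/v) L-rhamnose at OD600 near 0.5, cultures sampled hourly, flipped fraction per protease–substrate barcode pair counted by paired-end Illumina sequencing.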

| Variant | area with substrate ENLYAQS | area with substrate ENLYCQS | area with substrate ENLYDQS | area with substrate ENLYEQS | area with substrate ENLYGQS | area with substrate ENLYHQS | area with substrate ENLYIQS | area with substrate ENLYKQS | area with substrate ENLYLQS | area with substrate ENLYMQS | area with substrate ENLYNQS | area with substrate ENLYPQS | area with substrate ENLYQQS | area with substrate ENLYVQS | area with substrate ENLYWQS | area with substrate ENLYYQS | area with substrate ENLYRQS | area with substrate ENLYSQS | area with substrate ENLYTQS |
| --- | --- | --- | --- | --- | --- | --- | --- | --- | --- | --- | --- | --- | --- | --- | --- | --- | --- | --- | --- |
| E224Q | 0.073 | 0.0803 | 0.0576 | 0.0661 | 0.062 | 0.0781 | 0.129 | 0.0573 | 0.106 | 0.0914 | 0.0771 | 0.0851 | 0.0625 | 0.0937 | 0.0819 | 0.0718 | – | – | – |
| E224L | 0.0668 | 0.0704 | 0.057 | – | 0.0722 | 0.0787 | – | 0.0674 | 0.0919 | – | 0.0716 | 0.0728 | 0.0548 | – | 0.0668 | 0.0768 | 0.0452 | 0.0498 | – |
| E224D | 0.1 | 0.0662 | 0.0598 | 0.0903 | 0.0663 | 0.083 | 0.133 | 0.0613 | 0.0845 | 0.0775 | 0.0717 | – | – | – | 0.171 | 0.0613 | 0.0467 | – | – |
| Y12Q | – | 0.0861 | 0.0524 | 0.0812 | 0.0634 | 0.0695 | 0.125 | 0.0497 | – | – | 0.072 | 0.0853 | 0.0659 | 0.11 | 0.0646 | – | 0.0613 | 0.0739 | – |
| Y12I | – | 0.0678 | 0.0576 | 0.064 | 0.065 | 0.0691 | 0.0863 | 0.0551 | – | 0.0938 | 0.0729 | 0.0738 | 0.0649 | 0.134 | 0.078 | – | – | 0.0626 | 0.0885 |
| Y12V | – | 0.0973 | 0.0598 | 0.067 | – | 0.066 | 0.11 | 0.064 | 0.135 | 0.0912 | 0.0619 | 0.056 | 0.0679 | 0.0951 | 0.0894 | 0.0588 | 0.0611 | 0.0734 | 0.0822 |
| H215Q | 0.0481 | – | 0.0534 | 0.0751 | 0.0683 | 0.07 | 0.0374 | 0.0561 | 0.0642 | 0.0491 | 0.0566 | 0.0574 | – | – | 0.0492 | 0.0619 | 0.0567 | 0.0556 | – |
| S17C | – | 0.0863 | 0.0658 | 0.0647 | 0.0679 | 0.0675 | 0.138 | – | 0.0938 | 0.0889 | 0.0576 | 0.0764 | 0.0813 | 0.118 | 0.0803 | 0.0628 | 0.0746 | – | 0.0783 |
| V217W | 0.061 | – | 0.071 | 0.0458 | 0.0642 | 0.0697 | – | 0.0636 | – | 0.0493 | 0.0656 | – | 0.0597 | – | 0.0543 | 0.0648 | 0.0609 | – | – |
| E223L | 0.0674 | 0.0672 | 0.0609 | 0.0577 | 0.0614 | 0.0614 | 0.146 | 0.0615 | 0.0682 | 0.0945 | 0.062 | 0.0824 | 0.0671 | 0.102 | 0.0792 | 0.0643 | 0.0532 | 0.0684 | – |
| N13C | – | 0.122 | 0.0677 | 0.0654 | 0.0668 | 0.0683 | 0.128 | 0.0814 | – | 0.0864 | 0.064 | 0.0654 | 0.0611 | 0.096 | – | 0.0762 | 0.0681 | 0.0657 | 0.077 |
| A232Q | 0.105 | – | 0.0604 | 0.061 | 0.0692 | – | 0.101 | 0.0602 | 0.0932 | 0.0871 | 0.0725 | 0.0743 | 0.0553 | 0.0964 | 0.102 | 0.0591 | 0.0616 | – | – |
| A232L | 0.069 | 0.0662 | 0.0726 | – | 0.0619 | 0.0608 | 0.119 | 0.0443 | – | 0.0837 | 0.0685 | 0.0701 | 0.0563 | 0.0683 | – | 0.0699 | 0.0681 | – | – |
| W212V | 0.0714 | 0.0972 | 0.0504 | 0.0664 | 0.0655 | 0.0728 | 0.078 | 0.0614 | 0.0731 | 0.0862 | 0.0604 | 0.0741 | 0.0747 | – | 0.0931 | 0.153 | 0.0575 | 0.074 | – |
| W212E | 0.0506 | – | 0.0569 | 0.0612 | 0.0562 | 0.0615 | – | 0.0464 | 0.0629 | 0.0751 | 0.0586 | – | – | 0.0844 | – | 0.116 | 0.0655 | – | 0.0597 |
| D208Y | 0.0736 | 0.0553 | 0.0656 | 0.068 | 0.0555 | 0.0483 | 0.0684 | 0.06 | 0.0564 | 0.0691 | 0.0571 | 0.0629 | 0.0707 | 0.0886 | 0.0628 | – | 0.0536 | 0.0661 | 0.0667 |
| I15F | – | 0.0794 | – | 0.0641 | 0.0583 | 0.0714 | 0.132 | 0.0393 | 0.0768 | 0.0776 | 0.0637 | 0.0617 | 0.0454 | 0.0905 | 0.0738 | – | 0.0586 | 0.0705 | – |
| I15L | – | 0.0854 | 0.0639 | 0.0635 | 0.0639 | 0.0626 | 0.137 | 0.0625 | 0.0755 | 0.0781 | 0.0663 | 0.0623 | 0.072 | 0.124 | 0.0808 | 0.0695 | 0.0717 | – | 0.0676 |
| K221E | 0.0695 | – | 0.0679 | 0.0608 | 0.0623 | 0.0693 | 0.0825 | 0.0591 | – | – | 0.0598 | 0.0619 | 0.0676 | 0.0562 | 0.0781 | 0.0492 | 0.0577 | 0.0613 | – |
| V220Q | 0.07 | 0.0802 | 0.0651 | 0.0503 | 0.0609 | 0.0748 | 0.13 | 0.077 | 0.0876 | 0.0872 | 0.0663 | 0.0674 | 0.0608 | 0.0911 | 0.0882 | 0.0812 | 0.0629 | 0.0771 | 0.0902 |
| K216V | 0.0648 | – | 0.0608 | 0.0706 | – | 0.0569 | 0.105 | 0.0589 | – | 0.0956 | 0.0624 | 0.0804 | 0.0412 | 0.106 | 0.0869 | 0.115 | 0.046 | – | – |
| K216N | 0.064 | 0.0597 | 0.0638 | 0.0738 | 0.0845 | 0.062 | – | 0.0601 | 0.0637 | 0.0724 | 0.0589 | 0.0882 | 0.0602 | – | 0.0709 | 0.0646 | – | 0.0714 | – |
| K216P | 0.0674 | – | 0.0693 | 0.0768 | 0.0391 | 0.0652 | – | 0.0651 | – | 0.0782 | – | 0.05 | 0.077 | – | 0.0758 | 0.0523 | 0.0786 | – | – |
| K216A | 0.0574 | – | 0.0559 | 0.0602 | – | 0.0609 | 0.122 | 0.0448 | – | 0.0678 | 0.0605 | 0.063 | – | 0.13 | – | 0.0662 | – | – | – |
